Measurements published in PubChem BioAssay AID180 (DTP/NCI, 2004).
For part of its entries the source gives two or more results. This list holds those alone. The source may hold further records. Results that share an entry are repeats across runs, samples, wells, individuals or studies.

System: BDF1 mice, Adenocarcinoma 755 s.c., tumor weight T/C
Experiment: NCI In Vivo Anticancer Drug Screen. Data for tumor model Adenocarcinoma 755 (subcutaneous) in B6D2F1 (BDF1) mice
Conditions: endpoint: mean tumor weight, higher = larger tumour
Experimental: The antitumor activity of compounds was measured in mice bearing transplantable tumors. Survival or tumor size were measured and the results are expressed as the measurement made in the treated group (T) divided by the measurement made in the vehicle treated control group (C). The tumor model used in this assay is Adenocarcinoma 755 (subcutaneous) in B6D2F1 (BDF1) mice

[1] = dose: 3.7 mg/kg/injection, schedule: Q01DX011 (ip), vehicle: methylcellulose (MC)
[2] = dose: 7.5 mg/kg/injection, schedule: Q01DX011 (ip), vehicle: methylcellulose (MC)
[3] = dose: 15.0 mg/kg/injection, schedule: Q01DX011 (ip), vehicle: methylcellulose (MC)
[4] = dose: 15.0 mg/kg/injection, schedule: Q01DX011 (ip), vehicle: carboxymethylcellulose (CMC)

CN(C)[C@@H]1C(=O)C(C(=O)NCNCCCC(=O)O)=C(O)[C@@]2(O)C(=O)C3=C(O)c4c(O)cccc4[C@@](C)(O)[C@H]3C[C@@H]12
T/C (dose: 525.0 mg/kg/injection, schedule: Q01DX011 (ip), vehicle: saline): 3 % of control and 69 % of control

S=P(Oc1ccccc1)(N1CC1)N1CC1
T/C (dose: 27.5 mg/kg/injection, schedule: Q01DX011 (ip), vehicle: methylcellulose (MC)): 16 % of control, 49 % of control, 104 % of control
T/C (dose: 110.0 mg/kg/injection, schedule: Q01DX011 (ip), vehicle: methylcellulose (MC)): 7 % of control and 41 % of control

CSc1nc(C)c(Br)c(Sc2nc(N)nc3nc[nH]c23)n1
T/C (dose: 1.5 mg/kg/injection, schedule: Q01DX011 (ip), vehicle: carboxymethylcellulose (CMC)): 58 % of control, 83 % of control, 94 % of control
T/C (dose: 3.0 mg/kg/injection, schedule: Q01DX011 (ip), vehicle: carboxymethylcellulose (CMC)): 2 % of control and 36 % of control

C/C(=N\NC(=O)c1ccncc1)c1ccc(F)cc1
T/C [1]: 62 % of control and 93 % of control
T/C [2]: 37 % of control and 91 % of control
T/C [3]: 34 % of control and 78 % of control

C/C(=N/NC(=O)c1ccncc1)c1ccc(Cl)c(Cl)c1
T/C [1]: 44 % of control and 93 % of control
T/C [2]: 51 % of control and 92 % of control
T/C [3]: 34 % of control and 102 % of control
T/C (dose: 30.0 mg/kg/injection, schedule: Q01DX011 (ip), vehicle: methylcellulose (MC)): 37 % of control and 80 % of control

OCCOCCN1CCN(CCCN2c3ccccc3Sc3ccc(C(F)(F)F)cc32)CC1
T/C (dose: 10.0 mg/kg/injection, schedule: Q01DX011 (ip), vehicle: saline): 48 % of control and 99 % of control

CN1c2ccc3ccccc3c2Sc2ccc3ccccc3c21
T/C (dose: 100.0 mg/kg/injection, schedule: Q01DX011 (ip), vehicle: carboxymethylcellulose (CMC)): 26 % of control and 60 % of control
T/C (dose: 225.0 mg/kg/injection, schedule: Q01DX011 (ip), vehicle: carboxymethylcellulose (CMC)): 20 % of control and 48 % of control

C[C@@H]1C[C@@H]([C@H](O)CC2CC(=O)NC(=O)C2)C(=O)[C@@H](C)C1
T/C (dose: 20.0 mg/kg/injection, schedule: Q01DX011 (ip), vehicle: alkali diluted with saline): 65 % of control and 122 % of control
T/C (dose: 20.0 mg/kg/injection, schedule: Q#A X022 (ip), vehicle: alkali diluted with saline): 69 % of control and 110 % of control
T/C (dose: 40.0 mg/kg/injection, schedule: Q01DX011 (im), vehicle: alkali diluted with saline): 32 % of control and 64 % of control
T/C (dose: 40.0 mg/kg/injection, schedule: Q01DX011 (ip), vehicle: alkali diluted with saline): 78 % of control, 98 % of control, 106 % of control

CC(=O)c1cc(C)[nH]c1C
T/C (dose: 29.0 mg/kg/injection, schedule: Q01DX011 (ip), vehicle: methylcellulose (MC)): 45 % of control and 73 % of control
T/C (dose: 57.5 mg/kg/injection, schedule: Q01DX011 (ip), vehicle: methylcellulose (MC)): 50 % of control and 84 % of control

O=C(CCCl)N1CCN(C(=O)CCCl)CC1
T/C (dose: 44.0 mg/kg/injection, schedule: Q01DX011 (ip), vehicle: methylcellulose (MC)): 23 % of control, 65 % of control, 74 % of control
T/C (dose: 87.5 mg/kg/injection, schedule: Q01DX011 (ip), vehicle: methylcellulose (MC)): 38 % of control, 66 % of control, 70 % of control

CC(=O)[C@@]1(O)CC[C@H]2[C@@H]3C[C@H](C)C4=CC(=O)CC[C@]4(C)[C@H]3[C@@H](O)C[C@@]21C
T/C (dose: 28.0 mg/kg/injection, schedule: Q01DX011 (sc), vehicle: steriod suspending solution): 34 % of control, 50 % of control, 69 % of control
T/C (dose: 56.0 mg/kg/injection, schedule: Q01DX011 (sc), vehicle: steriod suspending solution): 20 % of control, 50 % of control, 53 % of control
T/C (dose: 900.0 mg/kg/injection, schedule: Q01DX011 (sc), vehicle: steriod suspending solution): 7 % of control and 97 % of control

O=C(CCBr)N1CCCN(C(=O)CCBr)CC1
T/C (dose: 28.0 mg/kg/injection, schedule: Q01DX011 (ip), vehicle: methylcellulose (MC)): 70 % of control and 98 % of control

CCC(=O)O[C@H]1CC[C@H]2[C@@H]3CCC4=CC(=O)CC[C@]4(C)[C@H]3CC[C@]12C
T/C (dose: 250.0 mg/kg/injection, schedule: Q01DX011 (sc), vehicle: steriod suspending solution): 81 % of control and 117 % of control
T/C (dose: 1000.0 mg/kg/injection, schedule: Q01DX011 (sc), vehicle: steriod suspending solution): 15 % of control, 43 % of control, 109 % of control

CC1(C)O[C@@H]2C[C@H]3[C@@H]4CCC5=CC(=O)CC[C@]5(C)[C@@]4(F)[C@@H](O)C[C@]3(C)[C@]2(C(=O)CO)O1
T/C (dose: 1.5 mg/kg/injection, schedule: Q01DX011 (sc), vehicle: steriod suspending solution): 43 % of control, 46 % of control, 76 % of control

C[C@]12CCC(=O)C=C1CC[C@@H]1[C@@H]2[C@@H](O)C[C@@]2(C)[C@H]1CC[C@]2(O)C(=O)COC(=O)CCC(=O)O
T/C (dose: 87.5 mg/kg/injection, schedule: Q01DX011 (sc), vehicle: steriod suspending solution): 29 % of control and 82 % of control
T/C (dose: 175.0 mg/kg/injection, schedule: Q01DX011 (sc), vehicle: steriod suspending solution): 26 % of control and 61 % of control
T/C (dose: 350.0 mg/kg/injection, schedule: Q01DX011 (sc), vehicle: steriod suspending solution): 15 % of control and 42 % of control

O=NN1CCN(N=O)CC1
T/C (dose: 5.87 mg/kg/injection, schedule: Q01DX011 (ip), vehicle: carboxymethylcellulose (CMC)): 67 % of control and 107 % of control

OCC1OC(n2cnc3c(=S)nc[nH]c32)C(O)C1O (stereo not given)
T/C (dose: 1.87 mg/kg/injection, schedule: Q01DX011 (ip), vehicle: carboxymethylcellulose (CMC)): 27 % of control and 58 % of control

C/C(=N\NC(=O)c1ccncc1)c1cccc(Br)c1
T/C [1]: 21 % of control and 67 % of control

O=C1N(Br)C(=O)C(c2ccc(Cl)cc2)(c2ccc(Cl)cc2)N1Br
T/C [4]: 36 % of control and 68 % of control

C1OC1C1CO1 (stereo not given)
T/C (dose: 4.88 mg/kg/injection, schedule: Q01DX011 (ip), vehicle: carboxymethylcellulose (CMC)): 63 % of control and 114 % of control
T/C (dose: 6.1 mg/kg/injection, schedule: Q01DX011 (ip), vehicle: carboxymethylcellulose (CMC)): 38 % of control and 86 % of control
T/C (dose: 12.2 mg/kg/injection, schedule: Q01DX011 (ip), vehicle: carboxymethylcellulose (CMC)): 51 % of control, 86 % of control, 90 % of control

CCOC1=C(N2CC2)C(=O)C(OCC)=C(N2CC2)C1=O
T/C (dose: 0.63 mg/kg/injection, schedule: Q01DX011 (ip), vehicle: methylcellulose (MC)): 34 % of control and 89 % of control
T/C (dose: 1.25 mg/kg/injection, schedule: Q01DX011 (ip), vehicle: methylcellulose (MC)): 2 % of control and 69 % of control

CSc1ncnc2c1ncn2C1OC(CO)C(O)C1O (stereo not given)
T/C (dose: 3.8 mg/kg/injection, schedule: Q01DX011 (ip), vehicle: saline): 108 % of control and 156 % of control
T/C (dose: 15.0 mg/kg/injection, schedule: Q01DX011 (ip), vehicle: saline): 27 % of control, 37 % of control, 80 % of control

CC(=O)[C@H]1CC[C@H]2[C@@H]3C[C@H](F)C4=CC(=O)CC[C@]4(C)[C@H]3C(=O)C[C@]12C
T/C (dose: 14.0 mg/kg/injection, schedule: Q01DX011 (sc), vehicle: steriod suspending solution): 35 % of control, 52 % of control, 108 % of control
T/C (dose: 27.5 mg/kg/injection, schedule: Q01DX011 (sc), vehicle: steriod suspending solution): 26 % of control and 53 % of control

O=S(=O)(Nc1ccccc1)c1ccc(C2CC3(Cl)C(Cl)=C(Cl)C2(Cl)C3(Cl)Cl)cc1 (stereo not given)
T/C (dose: 56.25 mg/kg/injection, schedule: Q01DX011 (ip), vehicle: methylcellulose (MC)): 82 % of control and 110 % of control

CNC(C)=O
T/C (dose: 500.0 mg/kg/injection, schedule: Q01DX011 (ip), vehicle: carboxymethylcellulose (CMC)): 84 % of control and 114 % of control

O=C(O)CCC(=O)CCl
T/C (dose: 4.25 mg/kg/injection, schedule: Q01DX011 (ip), vehicle: methylcellulose (MC)): 85 % of control and 119 % of control
T/C (dose: 8.5 mg/kg/injection, schedule: Q01DX011 (ip), vehicle: methylcellulose (MC)): 50 % of control and 93 % of control
T/C (dose: 17.0 mg/kg/injection, schedule: Q01DX011 (ip), vehicle: methylcellulose (MC)): 18 % of control and 67 % of control

CS(=O)(=O)c1nc(N)nc2nc[nH]c12
T/C [4]: 32 % of control and 60 % of control

c1ccc2[nH]cnc2c1
T/C (dose: 154.0 mg/kg/injection, schedule: Q01DX011 (ip), vehicle: carboxymethylcellulose (CMC)): 66 % of control, 83 % of control, 99 % of control
T/C (dose: 308.0 mg/kg/injection, schedule: Q01DX011 (ip), vehicle: carboxymethylcellulose (CMC)): 29 % of control and 88 % of control

CC1C[C@@H]2[C@H]([C@@H](O)C[C@@]3(C)[C@H]2CC[C@]3(O)C(=O)CF)[C@@]2(C)CCC(=O)C=C12 (stereo not given in full)
T/C (dose: 5.0 mg/kg/injection, schedule: Q01DX011 (sc), vehicle: steriod suspending solution): 42 % of control and 74 % of control
